# Experimental data taken from the supplement of paper PMC8728848.
# The list shows a part of the results.
# Columns and labels:
# Assay in all cases: glycan array binding signal (z-score within array); higher = stronger binding
# Conditions in all cases: glycan notation: IUPAC condensed, linker removed
# Neu5Ac(a2-8)Neu5Ac = target: Neu5Ac(a2-8)Neu5Ac
# Outline: (§1)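 Columns mapping to the same glycan were averaged after glycan names were converted to IUPAC-condensed notation. The data come from 3228 arrays in the Consortium for Functional Glycomics database, limited to those with an available protein sequence. Binding is reported as a within-array Z-score averaged across arrays of one protein sequence and across linkers.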
# [1] = target: Neu5Ac(a2-8)Neu5Ac(a2-3)Gal(b1-4)Glc
# Outline: as §1
# [2] = target: Neu5Ac(a2-8)Neu5Ac(a2-3)[GalNAc(b1-4)]Gal(b1-4)Glc
# Outline: as §1
# [3] = target: Neu5Ac(a2-8)Neu5Ac(a2-8)Neu5Ac
# Outline: as §1
# [4] = target: Neu5Ac(a2-8)Neu5Ac(a2-8)Neu5Ac(a2-3)Gal(b1-4)Glc
# Outline: as §1
# [5] = target: Neu5Ac(a2-8)Neu5Ac(a2-8)Neu5Ac(a2-3)[GalNAc(b1-4)]Gal(b1-4)Glc
# Outline: as §1
# [6] = target: Neu5Ac(a2-8)Neu5Ac(a2-8)Neu5Ac(a2-8)Neu5Ac(a2-3)[GalNAc(b1-4)]Gal(b1-4)Glc
# Outline: as §1
# [7] = target: Neu5Ac(b2-6)Gal(b1-4)GlcNAc
# Outline: as §1
# Neu5Ac(b2-6)GalNAc = target: Neu5Ac(b2-6)GalNAc
# Outline: as §1
# [8] = target: Neu5Ac9Ac(a2-3)Gal(b1-3)GlcNAc
# Outline: as §1
# [9] = target: Neu5Ac9Ac(a2-3)Gal(b1-4)GlcNAc
# Outline: as §1
# [10] = target: Neu5Ac9Ac(a2-6)Gal(b1-4)GlcNAc
# Outline: as §1
# [11] = target: Neu5Gc(a2-3)Gal(b1-3)GlcNAc
# Outline: as §1
# [12] = target: Neu5Gc(a2-3)Gal(b1-3)[Fuc(a1-4)]GlcNAc
# Outline: as §1
# Neu5Gc(a2-3)Gal(b1-4)Glc = target: Neu5Gc(a2-3)Gal(b1-4)Glc
# Outline: as §1
# [13] = target: Neu5Gc(a2-3)Gal(b1-4)GlcNAc
# Outline: as §1
# [14] = target: Neu5Gc(a2-3)Gal(b1-4)[Fuc(a1-3)]GlcNAc
# Outline: as §1
# [15] = target: Neu5Gc(a2-6)Gal(b1-4)GlcNAc
# Outline: as §1
# Neu5Gc(a2-6)GalNAc = target: Neu5Gc(a2-6)GalNAc
# Outline: as §1
# [16] = target: Neu5Gc(b2-6)Gal(b1-4)GlcNAc
# Outline: as §1
binder,measurement,setting,value
GH98CBM51-1 (Streptococcus pneumoniae) (protein) MTYLSDMDWSSATHGDIDKTKTVQKDAPFTTGNKGEHTKISLLTSDDKVKYFDKGIGTVADSPSVISYDISGQGFEKFETYIGIDQSANSSRSDHAVVDRIEIEIDGKVVYSSSVTNPEGFRYNTQAQFISVTIPQNAKKISLKSFAGEHTWGDEVVFADAKLIKTVST,glycan array binding signal (z-score),Neu5Ac(a2-8)Neu5Ac,-0.182
same,glycan array binding signal (z-score),[1],-0.187
same,glycan array binding signal (z-score),[2],-0.192
same,glycan array binding signal (z-score),[3],-0.191
same,glycan array binding signal (z-score),[4],-0.187
same,glycan array binding signal (z-score),[5],-0.179
same,glycan array binding signal (z-score),[6],-0.184
same,glycan array binding signal (z-score),[7],-0.181
same,glycan array binding signal (z-score),Neu5Ac(b2-6)GalNAc,-0.193
same,glycan array binding signal (z-score),[8],-0.187
same,glycan array binding signal (z-score),[9],-0.19
same,glycan array binding signal (z-score),[10],-0.196
same,glycan array binding signal (z-score),[11],-0.187
same,glycan array binding signal (z-score),[12],-0.189
same,glycan array binding signal (z-score),Neu5Gc(a2-3)Gal(b1-4)Glc,-0.19
same,glycan array binding signal (z-score),[13],-0.185
same,glycan array binding signal (z-score),[14],-0.182
same,glycan array binding signal (z-score),[15],-0.188
same,glycan array binding signal (z-score),Neu5Gc(a2-6)GalNAc,-0.191
same,glycan array binding signal (z-score),[16],-0.184
